Data as given in publication PMC10184828.
These are yes or no findings as the source states them, for the method shown. Some results given as binding are weak or reduced against the parent protein; the word gives no strength. Where a sequence is shown, tags or fusion partners need not be part of it.

T1: Sec23 (binding domain-fused) (S. cerevisiae) (UniProt P15303)
T1 sequence: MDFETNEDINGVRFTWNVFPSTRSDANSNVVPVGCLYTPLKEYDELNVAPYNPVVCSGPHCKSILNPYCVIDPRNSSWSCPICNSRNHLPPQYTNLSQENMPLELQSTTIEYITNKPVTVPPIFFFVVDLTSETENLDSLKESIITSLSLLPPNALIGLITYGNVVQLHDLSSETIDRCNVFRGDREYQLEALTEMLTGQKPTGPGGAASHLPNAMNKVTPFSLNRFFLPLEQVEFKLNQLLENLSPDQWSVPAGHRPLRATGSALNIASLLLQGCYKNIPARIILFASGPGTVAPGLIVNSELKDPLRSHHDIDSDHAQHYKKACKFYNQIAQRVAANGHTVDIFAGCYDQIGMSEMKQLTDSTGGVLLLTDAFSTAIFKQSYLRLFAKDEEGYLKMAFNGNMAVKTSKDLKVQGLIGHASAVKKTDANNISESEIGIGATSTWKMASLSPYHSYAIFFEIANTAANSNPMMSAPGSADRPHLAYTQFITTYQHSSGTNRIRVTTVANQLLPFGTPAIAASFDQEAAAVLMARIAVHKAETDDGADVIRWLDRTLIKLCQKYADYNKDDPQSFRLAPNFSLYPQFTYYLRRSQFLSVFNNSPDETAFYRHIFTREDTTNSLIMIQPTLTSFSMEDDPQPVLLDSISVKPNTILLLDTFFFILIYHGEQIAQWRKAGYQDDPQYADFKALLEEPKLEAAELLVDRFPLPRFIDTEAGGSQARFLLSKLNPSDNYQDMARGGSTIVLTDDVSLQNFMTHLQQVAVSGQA


Biological target: T1, Sec23 (binding domain-fused) (S. cerevisiae)
Experiment: two-hybrid; Gal4 activation domain-fused Sec16 fragments (pGAD-C1) with Gal4 DNA-binding domain-fused Sec23, Sed4C, Sec12C or Sec12C chimeras (pGBDU-C1); growth on plates lacking histidine, leucine and uracil at 30°C for 4 days

Row | Binder | binding
1 | Sec16 fragment 1639–2195 Δ1856–1967 (activation domain-fused) (domain or fragment, UniProt P48415) MYSPSVEALPIDPVVPQVHETGYNDFGNKHSQKSMPEDESHTSHDNSNADQNTLKDSADVTDETMDIEGPGFNDVKNLLPMEPNHQPTSTVNPIQTISDDIQPILQTNVEVRGTDASKMENSLPSIENERSSEEQPENISKSASSAYLPSTGGLSLENRPLTQDENSISETVQSTYLPAGSISMEAKPISQVQDVPRNVNNKASKLVEQHMAPPKPKFKPLESDADKYNDVIEDESDDDNMSTDEAKNRKEEKKNVNMKKETKPSNKDIDDKSNGWFGWLKKDTGDKKVYKAKLGHKNTLYYDEKLKRWVNKDATEEEKQKIIESSAPPPPPIVKRKDGGPKTKPRSGPINNSLPPVHATSVIPNNPITGEPLPIKTSPSPTGPNPNNSPSPSSPISRISGVNLTSKKANGLDDLLSLAGGPKPASTRRKKKTARGYVNVMDNIQ | binds
2 | Sec16 fragment 1639–2195 (activation domain-fused) (domain or fragment, UniProt P48415 1639-2195) MYSPSVEALPIDPVVPQVHETGYNDFGNKHSQKSMPEDESHTSHDNSNADQNTLKDSADVTDETMDIEGPGFNDVKNLLPMEPNHQPTSTVNPIQTISDDIQPILQTNVEVRGTDASKMENSLPSIENERSSEEQPENISKSASSAYLPSTGGLSLENRPLTQDENSISETVQSTYLPAGSISMEAKPISQVQDVPRNVNNKASKLVEQHMAPPKPKSTDATKMNYSPYVPQSTAASADGDESTILKTSPAIYARTHQAHASNPSQYFPLVNQANETASFELSESTSQAQSNGNVASENRFSPIKKAEVVEKDTFQPTIRKASTNQYRAFKPLESDADKYNDVIEDESDDDNMSTDEAKNRKEEKKNVNMKKETKPSNKDIDDKSNGWFGWLKKDTGDKKVYKAKLGHKNTLYYDEKLKRWVNKDATEEEKQKIIESSAPPPPPIVKRKDGGPKTKPRSGPINNSLPPVHATSVIPNNPITGEPLPIKTSPSPTGPNPNNSPSPSSPISRISGVNLTSKKANGLDDLLSLAGGPKPASTRRKKKTARGYVNVMDNIQ | binds
3 | Sec16 fragment 1856–2195 (activation domain-fused) (domain or fragment, UniProt P48415 1856-2195) STDATKMNYSPYVPQSTAASADGDESTILKTSPAIYARTHQAHASNPSQYFPLVNQANETASFELSESTSQAQSNGNVASENRFSPIKKAEVVEKDTFQPTIRKASTNQYRAFKPLESDADKYNDVIEDESDDDNMSTDEAKNRKEEKKNVNMKKETKPSNKDIDDKSNGWFGWLKKDTGDKKVYKAKLGHKNTLYYDEKLKRWVNKDATEEEKQKIIESSAPPPPPIVKRKDGGPKTKPRSGPINNSLPPVHATSVIPNNPITGEPLPIKTSPSPTGPNPNNSPSPSSPISRISGVNLTSKKANGLDDLLSLAGGPKPASTRRKKKTARGYVNVMDNIQ | binds
4 | Sec16 fragment 1968–2195 (activation domain-fused) (domain or fragment, UniProt P48415 1968-2195) FKPLESDADKYNDVIEDESDDDNMSTDEAKNRKEEKKNVNMKKETKPSNKDIDDKSNGWFGWLKKDTGDKKVYKAKLGHKNTLYYDEKLKRWVNKDATEEEKQKIIESSAPPPPPIVKRKDGGPKTKPRSGPINNSLPPVHATSVIPNNPITGEPLPIKTSPSPTGPNPNNSPSPSSPISRISGVNLTSKKANGLDDLLSLAGGPKPASTRRKKKTARGYVNVMDNIQ | binds
5 | Sec16 fragment 1639–1996 (activation domain-fused) (domain or fragment, UniProt P48415 1639-1996) MYSPSVEALPIDPVVPQVHETGYNDFGNKHSQKSMPEDESHTSHDNSNADQNTLKDSADVTDETMDIEGPGFNDVKNLLPMEPNHQPTSTVNPIQTISDDIQPILQTNVEVRGTDASKMENSLPSIENERSSEEQPENISKSASSAYLPSTGGLSLENRPLTQDENSISETVQSTYLPAGSISMEAKPISQVQDVPRNVNNKASKLVEQHMAPPKPKSTDATKMNYSPYVPQSTAASADGDESTILKTSPAIYARTHQAHASNPSQYFPLVNQANETASFELSESTSQAQSNGNVASENRFSPIKKAEVVEKDTFQPTIRKASTNQYRAFKPLESDADKYNDVIEDESDDDNMSTDEA | no binding
6 | Sec16 fragment 1639–1967 (activation domain-fused) (domain or fragment, UniProt P48415 1639-1967) MYSPSVEALPIDPVVPQVHETGYNDFGNKHSQKSMPEDESHTSHDNSNADQNTLKDSADVTDETMDIEGPGFNDVKNLLPMEPNHQPTSTVNPIQTISDDIQPILQTNVEVRGTDASKMENSLPSIENERSSEEQPENISKSASSAYLPSTGGLSLENRPLTQDENSISETVQSTYLPAGSISMEAKPISQVQDVPRNVNNKASKLVEQHMAPPKPKSTDATKMNYSPYVPQSTAASADGDESTILKTSPAIYARTHQAHASNPSQYFPLVNQANETASFELSESTSQAQSNGNVASENRFSPIKKAEVVEKDTFQPTIRKASTNQYRA | no binding
